Data taken from PMC12040169 (PLOS Biology, 2025).
The other results are listed elsewhere or left out.

tested on: T1, C. trachomatis L2/434/Bu expressing GFP (CTL2-GFP); design: species or system HeLa; C. trachomatis total inclusion area by high-content imaging, normalised to DMSO; conditions: total inclusion area; 28.5 h, 10 µM; inhibitor
T1 construct: L2/434/Bu GFP intracellular growth in HeLa cells
Procedure, shortened: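 High-content imaging followed the bulk GFP/resorufin measurement: fixed, Hoechst-stained cells were scored for GFP inclusions and host nuclei per well. Total inclusion area and count served as growth proxies, nuclei number as the viability proxy. MIC calculation matched the bulk assay.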

SMILES | % of control remaining
CCOC(=O)c1cccc(NC(=O)CSc2nc3cccnc3[nH]2)c1 [CBK269354] | 75.5752
CC12CN(S(=O)(=O)c3ccccc3)CC(c3ccccc3)(CN(S(=O)(=O)c3ccccc3)C1)C2=O [CBK268101] | 108.625
CC1CN(C)c2ccccc2CN1C(=O)Cc1cn2ccsc2n1 (stereo not drawn) [CBK306355] | 104.798
Cc1ccc(-c2noc(CN3CCN(Cc4ccccc4)CC3)n2)cc1 [CBK267288] | 105.177
COC(=O)Cn1nnc(-c2ccccc2)n1 [CBK069215] | 100.048
O=C(C1CC1)N1CCC(C(=O)N(Cc2ccco2)c2ccccc2)CC1 [CBK298269] | 87.1981
CC(=O)Nc1ccc(NC(=O)CCC(=O)O)cc1C [CBK265395] | 95.2899
CC(NC(=O)N1CCCN(Cc2cccs2)CC1)c1nncn1C (stereo not drawn) [CBK305322] | 70.4893
COc1ccccc1-c1ccccc1CC1(C(=O)NCc2ccc(F)cc2)CCOCC1 [CBK286425] | 93.5026
c1ccc2c(OCc3nnn[nH]3)cccc2c1 [CBK269495] | 87.0197
Cc1onc(-c2ccccc2)c1CNC(=O)CC1CC1 [CBK144072] | 102.061
CN(C)CCNc1cc(-c2ccncc2)nc2ccccc12 [CBK066898B] | 64.1624
Cc1nc(CC(=O)NC(Cc2ccsc2)c2nccs2)cs1 (stereo not drawn) [CBK282823] | 105.593
O=C(CC(C(=O)O)P(=O)(c1ccccc1)c1ccccc1)c1ccccc1 (stereo not drawn) [CBK264971] | 114.352
O=C(O)CCC(=O)Nc1cccc(NC(=O)c2ccc(Br)cc2)c1 [CBK300180] | 95.8923
CNCCc1n[nH]c(N)n1 [CBK020959] | 87.2778
O=[N+]([O-])c1ccc(Cl)cc1CN1CCN(C/C=C/c2ccccc2)CC1 [CBK261568] | 108.378
COc1ccc(Nc2nc(-c3cccc(-c4ccccc4)c3)cnc2N)cc1 [CBK063593] | 113.14
Cn1c(=O)[nH]c(=O)c2c1nc(N/N=C/c1cc(Br)ccc1O)n2CCO [CBK139415] | 63.6967
COc1ccccc1NC(=O)c1ccc(OCC(=O)O)cc1 [CBK265849] | 57.1642
O=C(NCC(c1ccccc1)c1c[nH]c2ccccc12)Nc1ccc(Cl)cc1 (stereo not drawn) [CBK269147] | 89.3121

SMILES | % of control remaining
O=C(NC1Cc2ccccc2C1)c1nc2ccccc2[nH]1 [CBK200361] | 87.8021
Cc1ccc(O)c(NC(=O)COc2ccc(Cl)cc2)c1 [CBK268670] | 96.2045
Cc1cc(C(=O)N2CCN3C(=O)CCC32C)c(C2CC2)o1 (stereo not drawn) [CBK282092] | 88.8917
O=C(O)c1ccc(Nc2ncnc3c2oc2ccccc23)cc1 [CBK269825C] | 88.7279
C/C=N\n1c(CO)nnc1CO [CBK034325] | 82.8016
CCN1CCCC1CN(Cc1cnn(C)c1)Cc1ccco1 (stereo not drawn) [CBK282470] | 112.393
O=C(Cc1ccsc1)N1CCn2nc(C(O)Cc3ccccc3)cc2C1 (stereo not drawn) [CBK306547] | 63.9528
O=C(COc1ccc2ccccc2c1)Oc1ccc2ccccc2c1 [CBK264885] | 105.287
Cc1nc(N)nc(N[C@@H]2CCOC[C@H]2OCCN(C)C)c1Cl [CBK307024] | 49.2237
Cc1ccc(Cn2nc(NC(=O)c3cc(C)on3)c3ccccc32)cc1 [CBK048215] | 103.555
Cc1cn(C2CC(O)C(CO)O2)c(=O)nc1SCCC#N (stereo not drawn) [CBK201201] | 104.181
Cc1nc2ccc(C(=O)N(C)CCN(C)C)cn2c1N(C)Cc1cccs1 [CBK146083] | 98.775
Cc1ccc2c(c1)C(=O)CC1(CCC3C(C(=O)N4CCCC4)C31)O2 (stereo not drawn) [CBK284951] | 93.9963
Cc1cc(C)n(CC(=O)NCCCn2ccnc2C(C)C)c(=O)n1 [CBK307185] | 29.739
Cc1ccccc1C(=O)Nc1cccc(NC(=S)NC(=O)c2cccs2)c1 [CBK263895] | 107.71
CC(C)C[C@H](NC(=O)N1CC(=O)Nc2ccccc21)C(=O)O [CBK286589] | 51.0276
FC(F)(F)c1ccnc(Sc2ccccn2)n1 [CBK093786] | 101.427
CC(=O)N1c2ccc(C(O)CN3CCSCC3)cc2CC1C (stereo not drawn) [CBK283143] | 102.646
CCN(Cc1ccncc1)C(=O)NCc1c(Cl)cccc1Cl [CBK155144] | 81.5085
CC(C)C1OC(NC2CC(C)(C)NC(C)(C)C2)=NC1=O (stereo not drawn) [CBK070360T] | 78.4905
CN1CCC(N(C)C(=O)NCCN2CCOCC2)C1 (stereo not drawn) [CBK156002] | 77.1434

SMILES | % of control remaining
Cc1cc(Cl)ccc1NC(=O)COC(=O)c1ccccc1I [CBK265638] | 113.22
N#CC1=C(N)Oc2[nH]nc(-c3cccs3)c2C1c1ccco1 (stereo not drawn) [CBK266088] | 119.433
CC(C)(C)CCNCCN1CCOCC1 [CBK001895] | 91.9226
Nc1nc(=O)[nH]c2c1ncn2[C@H]1C[C@@H](O)[C@@H](CO)O1 [CBK201323] | 108.845
COc1ccc(NC(=O)Nc2nn(Cc3c(F)cccc3Cl)cc2Cl)cc1OC [CBK267019] | 125.985
O=C(NC1CCCCC1)c1cc(S(=O)(=O)N2CCOCC2)ccc1Cl [CBK261662] | 105.298
CNC(=O)Nc1cccc(S(N)(=O)=O)c1 [CBK023839] | 99.5524
Cc1ccc(C(=O)Nc2ccccc2C(=O)N2CCN(Cc3ccccc3)CC2)cc1 [CBK263560] | 92.7329
CN1CC(c2ccccc2)CC2(CCN(CCCn3cnnn3)CC2)C1 (stereo not drawn) [CBK306522] | 89.2913
C=C(C)c1cccc(C(C)(C)NC(=O)N2CCC(C(=O)NC(c3ccc(OC)nc3)c3ccccc3C)CC2)c1 (stereo not drawn) [CBK074871] | 96.3816
COCc1cccc(-c2nccnc2OC(c2ccccc2)c2ccccc2)c1 [CBK106960] | 82.8526
CCn1nnc2c(=O)n(CC(=O)Nc3ccccc3)cnc21 [CBK287828] | 87.0996
COC(C)(C)C(=O)N1CCCC(c2ccc(Cc3ccc(Cl)cc3)cn2)C1 (stereo not drawn) [CBK285846] | 107.409
O=[N+]([O-])c1ccc(CN2CCN(c3nccnc3OCc3ccc(Cl)c(Cl)c3)CC2)cc1 [CBK083076T] | 91.3498
Cc1nc(SCC(=O)O)nc(O)c1Oc1ccccc1 [CBK263621] | 87.8427
O=C(CCc1ccccc1)NC(=S)Nc1ccc(-c2nc3ccccc3[nH]2)cc1 [CBK267472] | 80.8665
CCOC(=O)c1sc(NS(=O)(=O)c2cccc(Cl)c2C)nc1-c1ccccc1 [CBK000749] | 104.62
O=C(CS(=O)(=O)Cc1ccccc1)Nc1ccc(S(=O)(=O)N2CCOCC2)cc1 [CBK266658] | 103.972
CN1CCN(C(=O)c2ccc(-c3cncc(-c4cc5ccccc5[nH]4)n3)c(F)c2)CC1 [CBK144906] | 81.8867
Cc1cccc(CN(CC(C)(C)CN)C(=O)Nc2ccc(-c3ccccc3)cc2)n1 [CBK002453C] | 68.9284
CCc1nn(CC(=O)N2CCCC2)c(=O)c2cc3sccc3n12 [CBK284028] | 112.933

SMILES | % of control remaining
O=C(Nc1ccc(F)c(F)c1)NC1CCC2CN(CCOc3ccccc3)CC2C1 (stereo not drawn) [CBK083365T] | 0.1534
Cc1ccc(NS(=O)(=O)c2cc(C(=O)O)ccc2Cl)cc1S(=O)(=O)N1CCOCC1 [CBK296954] | 83.1211
CC(C)N(Cc1nc(-c2ccc(Cl)cc2)no1)S(=O)(=O)c1cccc([N+](=O)[O-])c1 [CBK267050] | 127.48
Cc1cccn2cc(CCNC(=O)N3CCOCC3C3CC3)nc12 (stereo not drawn) [CBK304033] | 97.5915
COC(=O)CCc1sc(NC(=O)CSCC(=O)O)nc1-c1ccc(OC)cc1 [CBK296116] | 120.716
O=C(c1cccc(F)c1)N1CCCC1c1n[nH]cc1-c1ccncc1 (stereo not drawn) [CBK283437] | 87.0229
O=S(=O)(c1ccccc1)n1cc2c3c(cccc31)CN(CCO)C2 [CBK156333T] | 92.3164
CN(C)CCn1ccnc1C1CCCN(C(=O)Cc2cccc(Cl)c2)C1 (stereo not drawn) [CBK307272] | 76.1458
COc1ccc(-c2cc(C(=O)Nc3ccc4ncccc4c3)cnc2-c2ccccc2)cc1 [CBK036623] | 99.5423
Cn1c(=O)c2c(nc(CN3CCC(Cc4ccccc4)CC3)n2CCN2CCOCC2)n(C)c1=O [CBK269380] | 85.4682
CCCCOc1ccc(NC(=O)NCCC2=CCCCC2)cc1 [CBK043751] | 37.1126
Cc1cccn2cc(CC(=O)NCCNC(=O)OC(C)(C)C)nc12 [CBK306122] | 43.9484
COCCc1noc(CC2CCN(c3nc(C#N)c(Cl)s3)CC2)n1 [CBK304205] | 94.1822
CC1CCN(CCOCC(O)CNS(=O)(=O)O)CC1 (stereo not drawn) [CBK261454N] | 86.6748
CC(=O)Nc1ccc2n(c1=O)C[C@H]1C[C@@H]2CN(C(=O)COc2ccccc2)C1 [CBK289074] | 108.06
Cn1c(N2CC[C@H](O)C2)nc2cc(C(=O)NC3CCNCC3)ccc21 [CBK306873] | 12.1913
COc1ccc(-c2nc3ccc(OC)cc3[nH]2)cc1 [CBK000126] | 14.7693
O=S(=O)(Nc1nc2c(s1)CCCC2)c1ccc(Br)cc1 [CBK097787] | 83.6387
